Experimental data as given in patent US9040488B2, “Imino sugar derivatives demonstrate potent antiviral activity and reduced toxicity” (Baruch S. Blumberg Institute, priority 2008, dated 2015).

Key:
[1] = in vivo
[2] = in vivo; remark: listed apart in the source

CC(=O)O.CC1CCC(OCCCCCCN2C[C@H](O)[C@@H](O)[C@H](O)[C@H]2CO)CC1 (stereo partly shown) [CM-9-78]
tolerability judged by body weight and food consumption [1]: well tolerated | half life, oral versus intraperitoneal [2]: longer half life | peak serum compound concentration, oral versus intraperitoneal [2]: higher peak serum compound concentrations | time with plasma concentration above 30 μM ([2]; po, 100 mg/kg): at least 10 hours
